Experimental data as given in publication PMC4336329 (PLoS ONE, 2015).
Out of some 310,000 compounds screened, about 14,000 (4.5%) showed an effect of 50% or more. The effect is printed as a negative number. The list shows a part of the results.

Target: human ether-à-go-go-related gene (hERG) potassium channel (human, UniProt Q12809)
Assay: primary screen, population patch clamp on CHO cells stably expressing hERG
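Also: peak tail current of the secondary pulse compared with the same well before compound.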

Chain of human ether-à-go-go-related gene (hERG) potassium channel (Q12809 whole entry, looked up): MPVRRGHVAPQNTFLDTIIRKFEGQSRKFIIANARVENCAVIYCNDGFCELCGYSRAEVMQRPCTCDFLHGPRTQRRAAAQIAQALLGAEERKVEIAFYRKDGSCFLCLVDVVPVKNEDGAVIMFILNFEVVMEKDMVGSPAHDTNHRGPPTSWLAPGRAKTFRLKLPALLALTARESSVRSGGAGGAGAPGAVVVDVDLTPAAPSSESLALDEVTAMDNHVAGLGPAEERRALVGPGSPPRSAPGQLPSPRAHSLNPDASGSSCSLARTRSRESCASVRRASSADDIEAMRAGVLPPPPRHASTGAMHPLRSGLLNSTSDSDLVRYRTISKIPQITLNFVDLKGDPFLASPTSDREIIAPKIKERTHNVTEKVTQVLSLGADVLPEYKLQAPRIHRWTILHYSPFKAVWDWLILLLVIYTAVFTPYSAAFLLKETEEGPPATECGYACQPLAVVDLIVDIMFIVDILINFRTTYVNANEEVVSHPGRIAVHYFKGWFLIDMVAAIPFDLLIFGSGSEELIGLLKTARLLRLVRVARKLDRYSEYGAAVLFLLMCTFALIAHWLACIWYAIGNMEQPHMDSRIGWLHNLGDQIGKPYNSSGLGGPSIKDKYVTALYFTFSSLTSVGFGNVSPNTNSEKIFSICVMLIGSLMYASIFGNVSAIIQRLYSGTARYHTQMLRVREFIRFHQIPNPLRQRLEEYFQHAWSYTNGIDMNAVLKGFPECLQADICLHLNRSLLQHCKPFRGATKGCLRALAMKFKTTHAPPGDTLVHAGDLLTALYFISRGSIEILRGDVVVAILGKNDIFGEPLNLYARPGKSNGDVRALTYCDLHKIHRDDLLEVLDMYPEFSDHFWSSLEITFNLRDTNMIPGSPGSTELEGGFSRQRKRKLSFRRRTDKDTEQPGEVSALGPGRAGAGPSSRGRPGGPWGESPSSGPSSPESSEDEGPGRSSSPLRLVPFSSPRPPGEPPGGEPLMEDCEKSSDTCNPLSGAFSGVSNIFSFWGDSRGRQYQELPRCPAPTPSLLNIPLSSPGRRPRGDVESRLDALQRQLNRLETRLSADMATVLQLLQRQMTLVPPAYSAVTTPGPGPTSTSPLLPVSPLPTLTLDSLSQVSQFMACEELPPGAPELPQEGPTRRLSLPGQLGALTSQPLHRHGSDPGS

| SMILES | hERG current change (%, negative = inhibition) at 10uM [%] |
| --- | --- |
| Cc1sc(NC(=O)C2C3CCC(O3)C2C(=O)O)c(C(=O)OC(C)C)c1-c1ccc(Cl)cc1 (centres unmarked) | 0.0141 |
| CCOC(=O)CSc1nc(NC#N)nc(N(CC)CC)n1 | 4.39 |
| O=C(CSc1nnc(-c2cccnc2)n1-c1ccccc1)NCc1ccc2c(c1)OCO2 | -69 |
| CCN(CC)S(=O)(=O)c1ccc(C(=O)Nc2ncn(Cc3ccccc3)n2)cc1 | -2.91 |
| COc1cccc(NC(=O)C(=O)N2CCOCC2)c1 | 14.5 |
| CCOc1ccc(C(=O)CSCCC(=O)O)cc1 | 18.7 |
| CCCCCn1c(=N)n(CC(O)COc2ccccc2OC)c2ccccc21.Cl (centres unmarked) | -81.1 |
| Nc1nnnn1/N=C/c1ccccc1OCc1ccc(Cl)cc1 | 2.22 |
| O=C1NC(=S)N(c2ccccc2F)C(=O)/C1=C\c1cccs1 | 11.5 |
| O=C(c1ccc(S(=O)(=O)NCC2CCCO2)cc1)N1CCN(c2ccccc2F)CC1 (centres unmarked) | 24.2 |
| O=C(OCc1cc2ccccc2[nH]c1=O)c1ccncc1 | -1.98 |
| COc1ccc(CNC(=O)CCN2C(=S)NC(C)(C)CC2C)cc1 (centres unmarked) | 4.81 |
| CC(C)(O)C(=O)Nc1ccc([N+](=O)[O-])c(C(F)(F)F)c1 | 10.4 |
| CC(C)OC(=O)c1c(NC(=O)c2cnn3c2NC(c2ccccc2)CC3C(F)F)sc2c1CCCC2 (centres unmarked) | 6.72 |
| Cc1nc2ccc(NC(=O)c3ccc(Cl)c(NC(=O)c4cccs4)c3)cc2s1 | 1.92 |
| OCCSc1nc(-c2ccccc2)nc2ccc(F)cc12 | 6.2 |
| Cc1ccc(OC(=O)c2ccc(C)c(C)c2)cn1 | -0.436 |
| CCOC(=O)C1CCN(CCCSc2ccccc2)CC1.Cl | -62.4 |
| COc1cccc(NC(=O)CN(C)C(=O)c2cc(S(=O)(=O)NCc3ccccc3)ccc2C)c1 | -71.1 |
| CC(C)NC(=O)C1CCN(C2CCN(C(=O)c3cc4c(s3)CCCCC4)CC2)CC1 | -51.8 |
| COc1nc(-c2ccccc2)ccc1-c1noc(COc2ccccc2)n1 | 15.2 |
| Cc1cccc(C)c1NC(=O)c1cccnc1 | 18 |

| SMILES | hERG current change (%, negative = inhibition) at 10uM [%] |
| --- | --- |
| Nc1nc(C(=O)N2CCOCC2)nn1S(=O)(=O)c1ccccc1 | 11.3 |
| CCN(CC(=O)Nc1ccccc1C(F)(F)F)C(=O)CN1C(=O)NC2(CCCC2)C1=O | -9.42 |
| Cc1ccc2nc(NC(=O)/C=C/c3ccc4c(c3)OCO4)sc2c1 | 14.8 |
| O=C(O)/C=C/C(=O)NCCc1ccc(Cl)cc1 | 12.7 |
| CC(C)CC(NC(=O)C1CCC(C)CC1)C(=O)Nc1ccccn1 (centres unmarked) | -11 |
| Cc1cc(Br)ccc1NC(=O)CCN1C(=O)c2ccncc2C1=O | -3.48 |
| COCCCNCC1C(Oc2ccc(Cl)cc2)C(=O)N1c1ccccc1C (centres unmarked) | -8.54 |
| FC(F)(F)c1cccc(NC(=S)Nc2cccc(Cl)c2)c1 | 4.53 |
| CN(C)CCOC(=O)NCC12CC3CC(CC(C3)C1)C2.Cl | 1.57 |
| Cc1oc(S(=O)(=O)N2CCOCC2)cc1C(=O)Nc1ccc(Cl)cc1 | -2.49 |
| O=C(CCS(=O)(=O)c1ccccc1)N1CCCc2ccccc21 | 3.48 |
| COC(=O)CSc1nc(N)c(C#N)c(CC(C)C)c1C#N | 3.52 |
| Cc1cc(=O)[nH]c(SCCCOc2ccccc2Cl)n1 | 3.82 |
| O=C(Nc1ccc(N2CCN(C(=O)c3ccccc3)CC2)cc1)c1ccc2c(c1)OCO2 | -16.4 |
| Cc1ccc(NC(=S)N2CCc3[nH]c4ccccc4c3C2)cc1 | 9.63 |
| Cc1ccc(-c2cn3cccnc3n2)cc1NC(=O)c1cccs1 | 0.102 |
| Cc1ccc(S(=O)(=O)N2CCN(C(=O)c3ccccc3)CC2)c(C)c1NS(C)(=O)=O | 3.29 |
| CN(CC(=O)Nc1ccccc1Cl)C(=O)c1cccc(-n2cccc2)c1 | -19.4 |
| COC(=O)c1ccc(OCC(=O)Nc2nn(-c3ccccc3)nc2C(N)=O)cc1 | -5.7 |
| COC(=O)c1ccc(C(C(=O)NCc2ccccc2)N(Cc2cccs2)C(=O)c2cnccn2)cc1 (centres unmarked) | -23.2 |
| C=CCNC(=S)NCC | 28.1 |
| CCCSc1nc2c(c(=O)n(C)c(=O)n2C)n1C | 2.25 |
